Laboratory results: PubChem BioAssay AID488969 (Vanderbilt High Throughput Screening Facility, 2010)
Whole data set: some 110,000 compounds, median “z-score” near -0.1, cut for the highest 2% near 2. The list shows a part of the results. Active and inactive are the calls of the source.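 Rule for the calls: active = z-score in the third read window above 3 or below -3; inactive = the rest.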

target: Metabotropic glutamate receptor 8 (Rattus norvegicus) (UniProt P70579); test: mGluR8 Gi/Go-coupled signaling modulation – cell-based, rat, thallium flux, HTS, primary screen (AID 488969); conditions: HEK293 rat mGluR8, GIRK (G protein-gated inwardly rectifying potassium channel) thallium flux, FluoZin2; at 10 µM; stronger effect = higher value; submaximal glutamate (EC20) added with thallium
UniProt P70579, sequence (P70579 whole entry, looked up): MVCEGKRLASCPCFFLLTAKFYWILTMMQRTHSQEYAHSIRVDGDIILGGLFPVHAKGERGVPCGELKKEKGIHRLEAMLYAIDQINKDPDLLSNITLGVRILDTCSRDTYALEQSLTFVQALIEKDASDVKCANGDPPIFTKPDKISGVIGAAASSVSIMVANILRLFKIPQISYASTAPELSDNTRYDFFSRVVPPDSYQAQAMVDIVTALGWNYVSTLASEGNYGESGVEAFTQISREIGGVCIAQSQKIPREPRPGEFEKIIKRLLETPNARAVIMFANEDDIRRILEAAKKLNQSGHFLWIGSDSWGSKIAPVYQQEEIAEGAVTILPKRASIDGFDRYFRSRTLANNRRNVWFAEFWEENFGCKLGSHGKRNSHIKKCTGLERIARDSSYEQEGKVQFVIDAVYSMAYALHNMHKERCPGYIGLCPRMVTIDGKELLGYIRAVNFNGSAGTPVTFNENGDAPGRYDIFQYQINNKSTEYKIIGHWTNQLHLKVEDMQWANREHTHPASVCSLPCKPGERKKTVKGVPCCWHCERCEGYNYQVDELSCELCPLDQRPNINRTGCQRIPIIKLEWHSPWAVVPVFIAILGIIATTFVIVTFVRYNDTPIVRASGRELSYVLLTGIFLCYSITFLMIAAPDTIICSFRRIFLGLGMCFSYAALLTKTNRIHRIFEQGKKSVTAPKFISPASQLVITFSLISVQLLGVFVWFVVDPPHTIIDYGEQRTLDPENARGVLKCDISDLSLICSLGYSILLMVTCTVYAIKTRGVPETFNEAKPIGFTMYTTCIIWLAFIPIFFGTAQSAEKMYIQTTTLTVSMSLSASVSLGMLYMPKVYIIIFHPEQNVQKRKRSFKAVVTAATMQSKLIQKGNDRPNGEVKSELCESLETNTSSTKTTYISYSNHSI

Row | Structure (SMILES) | z-score
1 | Cc1cc(C(F)(F)F)c(C#N)c(Sc2ccccc2)n1 | 0.95
2 | O=c1cc(N2CCN(Cc3ccccc3)CC2)[nH]c(=O)n1-c1cccc(C(F)(F)F)c1 | 0.278
3 | CCCCCCC(=O)N/N=C/Cc1ccccc1 | 0.106
4 | C=CCSc1[nH]c(=O)cc(C)c1C(N)=O | 0.533
5 | CCCCOc1ccc(C(=O)NCC2(c3ccc(OC)cc3)CCOCC2)cc1 | -0.475
6 | O=C(O)CCc1ccc(-c2ccccc2)n1NC(=O)c1ccco1 | -0.274
7 | Cc1nn(CC(=O)NCc2cccc3ccccc23)c(=O)c2ccccc12 | -0.0519
8 | Cc1nnsc1-c1nc2ccccc2[nH]1 | 0.291
9 | CCc1ccc(C(=O)Cn2ncc(Cl)c(Cl)c2=O)cc1 | -0.347
10 | CCOC(=O)c1cnc(-n2nc(C)cc2C)nc1N1CCOCC1 | -0.55
11 | O=C(O)c1cc(NCc2ccccc2C(F)(F)F)ccc1N1CCOCC1 | -0.168
12 | Cc1ccc(C)c(-c2cc(C(=O)NCc3cccs3)c3ccccc3n2)c1 | -0.0338
13 | Cc1ccccc1NC(=O)Cn1c(C)nc2ccc(N)cc2c1=O | -0.213
14 | O=C(COC(=O)c1cccc(N2C(=O)c3ccccc3C2=O)c1)Nc1ccccc1 | active: 5.13
15 | CSc1ccc(C(=S)N2CCN(CCO)CC2)cc1 | 0.0369
16 | Cc1ccc(SCc2c(-c3ccccc3)nn(C)c2Cl)cc1 | -0.179
17 | CCn1c(SCC(=O)Nc2oc(-c3ccccc3)c(-c3ccccc3)c2C#N)nnc1-c1ccco1 | -2.7
18 | CCCOC(=O)CSC1=C(C#N)C(c2ccccc2OCC)C(C#N)C(=O)N1 (stereo not given) | -0.653
19 | O=C(COc1ccc2ccccc2c1)NCCNC(=O)COc1ccc2ccccc2c1 | -0.27
20 | COC(=O)c1ccc(NC(=O)CNCc2ccncc2)cc1 | -0.143
21 | CCOC(=O)c1sc(NC(=O)CSc2n[nH]c(-c3ccc(Cl)cc3Cl)n2)c(C#N)c1C | -0.2
22 | Cc1noc(C)c1COc1ccc(C(=O)OCC(=O)N2c3ccccc3NC(=O)C2(C)C)cc1 | -1.16
23 | CC(Sc1ccc(Cl)cc1)C(=O)NCC1CCCO1 (stereo not given) | -0.0934
24 | COc1ccc(C)cc1S(=O)(=O)N1CCC(C(=O)NCCC2=CCCCC2)CC1 | 0.0645

Row | Structure (SMILES) | z-score
25 | CCOC(=O)N1CCN(S(=O)(=O)c2cc(OCC(=O)NC3CCCCC3)c(C)cc2Cl)CC1 | -0.133
26 | CCC(C)(C)n1nnnc1C(c1ccc(C)cc1)N(Cc1ccco1)Cc1cccs1 (stereo not given) | -0.0701
27 | CCOC(=O)N1CCN(C(=O)CN(Cc2ccccc2)S(=O)(=O)c2ccc(OC)c(Cl)c2)CC1 | -0.545
28 | COc1ccc2nc(NC(=O)c3cccc(-c4cc5ccccc5oc4=O)c3)sc2c1 | 0.372
29 | COc1ccc(-n2c(C)nc3cc(C(=O)N4CCOCC4)ccc32)cc1 | 0.377
30 | N=C1C=CC=C2C1=NC1(CCCCC1)N2O | 1.08
31 | CC(C)(C)N/N=C/c1c(O)n(-c2ccc(Cl)cn2)c(=O)c2ccccc12 | -0.269
32 | COc1ccc(NC(=O)c2sc(Cl)nc2-c2ccccc2)cc1 | -0.514
33 | Cc1cc(C)n(Cc2ccc(NC(=O)c3ccc(COc4ccccc4Br)cc3)cc2)n1 | -0.0999
34 | O=C(c1ccc(Cl)cc1)N1CCN(c2ccc([N+](=O)[O-])c(NCc3cccnc3)c2)CC1 | -0.47
35 | CC[n+]1c(/C=C/N(C)c2ccccc2)oc2ccccc21 | -0.248
36 | O=C(O)c1ccc(S(=O)(=O)Nc2ccc(F)c(Cl)c2)cc1 | 0.217
37 | CCOC(=O)c1nc2nc(-c3cccs3)cc(C(F)(F)F)n2n1 | -0.035
38 | O=C(NCc1ccccc1)c1cnsn1 | -0.0655
39 | COc1ccc(C)cc1S(=O)(=O)N(C)CC(=O)Nc1ccc2c(c1)OCO2 | 0.0122
40 | CCc1ccc2c(c1)C(NC(C)=O)C(=O)N2CC (stereo not given) | 0.0709
41 | O=[N+]([O-])c1ccccc1/C=N/N1CCN(c2ccncc2S(=O)(=O)N2CCCCC2)CC1 | -0.0221
42 | CN(C)S(=O)(=O)c1cccn1-c1ncc(C(F)(F)F)cc1Cl | -0.0754
43 | COc1ccccc1NC(=O)C1=C(C)Nc2nnnn2C1c1cccc(C)c1 (stereo not given) | -0.502
44 | Cc1nn(CCOc2ccccc2)c(=O)n1-c1ccccc1F | 0.112
45 | COc1ccccc1NS(=O)(=O)c1ccc2c(c1)n(C)c(=O)n2C | -0.217
46 | CCOC(=O)Cn1nc(-c2ccc(F)cc2)oc1=O | -0.119
47 | Cc1oc(=O)c(NC(=O)c2cccc(Cl)c2)cc1C(=O)c1ccccc1 | 0.0257
48 | COc1ccc(CNC(=O)C(C)N=C2NS(=O)(=O)c3ccccc32)cc1OC (stereo not given) | -0.127

Row | Structure (SMILES) | z-score
49 | COc1cc2c(-c3ccccc3O)nc3c(c(C)nn3-c3ccccc3)c2cc1OC | -0.0428
50 | Cc1cc(N2CCOCC2)nc(NCc2ccccc2)n1 | -0.0745
51 | O=C(Nc1nnc(CSCc2ccc(F)cc2)s1)c1cccc([N+](=O)[O-])c1 | -0.37
52 | CC1CN(S(=O)(=O)c2cccc(C(=O)NCCCn3ccnc3)c2)CC(C)O1 (stereo not given) | 0.0312
53 | Fc1ccccc1OCCCCn1cncn1 | 0.576
54 | CCOC(=O)c1csc(NC(=O)Nc2cccc(OC)c2)n1 | 0.576
55 | CC(C)(C)C(=O)O/N=C1/C(=O)N(c2ccccc2)c2ccccc21 | -0.251
56 | CC1Cc2nc(SCC(=O)Nc3nccs3)n(Cc3ccccc3)c(=O)c2S1 (stereo not given) | 0.762
57 | C=CCn1c(C)cc(C)c(C#N)c1=O | 0.181
58 | COc1ccc(OC)c(S(=O)(=O)N2CCCC(C)C2)c1 (stereo not given) | 0.133
59 | Cc1cc(NC(=O)CSc2nnc(C)c(=O)[nH]2)no1 | -0.167
60 | CCn1c(SCC(N)=O)nc2c1c(=O)n(C)c(=O)n2C | -0.15
61 | CC(=O)c1ccc(N2CCN(c3ccc(S(=O)(=O)N4CCN(C)CC4)cn3)CC2)cc1 | 0.275
62 | Cc1cc(NC(=O)C2CC2)ncc1NC(=O)C12CC3CC(CC(C3)C1)C2 | -0.0511
63 | COc1ccc(-c2c(C#N)c(N)nc3c2CCc2ccccc2-3)cc1OC | -0.362
64 | CCOc1ccc(-c2nnn(CC(=O)NCc3ccco3)n2)cc1OCC | 0.241
65 | CCOC(=O)c1ccc2[nH]c(C)c(CN3CCN(C)CC3)c(=O)c2c1 | -0.371
66 | Cc1nc2sc(C(c3cccs3)N3CC(C)CC(C)C3)c(O)n2n1 (stereo not given) | -0.461
67 | COC(=O)c1cc2c(=O)n3ccccc3nc2n(C(C)C)c1=N | 0.239
68 | CCn1ccc(C(=O)Nc2ccc(Cl)cn2)n1 | 0.0101
69 | CN1C(=O)NC(NC(=O)c2ccncc2)(C(F)(F)F)C1=O (stereo not given) | -0.0497
70 | CCOc1cc(C(=S)N2CCCCC2)ccc1OS(=O)(=O)c1ccc(Cl)cc1 | -0.121
